For at least one compound, name, drawing or mass did not settle the structure. *1 amine or outer side, *2 acyl side, *3 side chain or, on linkers, in order; H or OH if unused. Where a SMILES comes first, the peptide text is derived from it. Side-chain parts run from the residue outwards. [ ]: non-standard residue; d: D form. The star is where a group is joined. C20 diacid = O=C(O)CCCCCCCCCCCCCCCCCCC(=O)*; C18 diacid = O=C(O)CCCCCCCCCCCCCCCCC(=O)*; γGlu = O=C(O)[C@H](CCC(=O)[*:2])N[*:1]; εLys = N[C@@H](CCCCN[*:1])C(=O)[*:2]; αMeL = CC(C)C[C@](C)(N)C(=O)O; AEEA = NCCOCCOCC(=O)O; Aib = CC(C)(N)C(=O)O
Legend:
[1] = target: T1, human CRHR1 (Homo sapiens, UniProt P34998); test: Human CRHR1 cAMP assay (HTRF) in HEK293 cells stably expressing human CRHR1; assay type: cell-based; details: HEK293 cells overexpressing human CRHR1; relative EC50, maximum 66 nM human UCN1; mean ± SE; read-out: hCRHR1 cAMP EC50 (pM, ± SE)
T1 construct: expressed in transfected cells
T1 sequence (P34998 24-415): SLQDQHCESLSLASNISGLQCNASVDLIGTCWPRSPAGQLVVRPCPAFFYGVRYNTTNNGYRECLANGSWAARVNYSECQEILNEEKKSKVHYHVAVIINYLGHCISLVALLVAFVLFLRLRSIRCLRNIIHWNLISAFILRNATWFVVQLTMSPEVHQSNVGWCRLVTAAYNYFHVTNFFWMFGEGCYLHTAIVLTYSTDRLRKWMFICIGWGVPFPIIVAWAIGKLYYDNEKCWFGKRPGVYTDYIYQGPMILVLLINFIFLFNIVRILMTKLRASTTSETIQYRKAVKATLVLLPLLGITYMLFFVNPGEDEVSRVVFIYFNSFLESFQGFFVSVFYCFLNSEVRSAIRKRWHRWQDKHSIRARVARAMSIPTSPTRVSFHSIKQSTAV
Experimental: (§1) The corticotropin-releasing hormone (CRH) receptor 1 and 2 (CRHR1 and CRHR2) are GPCRs that were functionally coupled to Gs proteins. Stimulation of these receptors results in an increased production of intracellular cAMP, which can be detected using standard in vitro technologies. In vitro activity of peptides was measured by the amount of cAMP formed in human CRHR1 and CRHR2 overexpressed cells.
Human CRHR1 and CRHR2 receptors were stably expressed in human embryonic kidney cells (HEK293) under control of a pcDNA expression vector. The HEK293 cell line was cultured in DMEM 1× (Gibco, 93-0152DK) supplemented with 10% FBS, 1 mM sodium pyruvate, 1×MEM NEAA, 1× GlutaMAX and 10 mM HEPES. […] After 20 days under selection, the mRNA levels from different clones were measured to confirm the expression of human CRHR1 and CRHR2 genes. To determine the function of over-expressed CRHR cells, the intracellular cAMP levels in response to human UCN1 and UCN2 were measured and compared to the expression of CRHR1 and CRHR2 mRNA in each clone. […]
The amount of intracellular cAMP was quantitated using HTRF technology (Homogeneous Time Resolved Fluorescence; Cisbio) as per vendor instructions. […] The HTRF signal was immediately detected using an Envision plate reader (Perkin-Elmer) to calculate the ratio of fluorescence at 665 to 620 nm. […]

[2] = target: T2, human CRHR2 (Homo sapiens, UniProt Q13324); test: Human CRHR2 cAMP assay (HTRF) in HEK293 cells stably expressing human CRHR2; assay type: cell-based; details: HEK293 cells overexpressing human CRHR2; relative EC50, maximum 10 nM human UCN2; mean ± SE; read-out: hCRHR2 cAMP EC50 (pM, ± SE)
T2 construct: expressed in transfected cells
T2 sequence (Q13324 1-438 isoform Q13324-2): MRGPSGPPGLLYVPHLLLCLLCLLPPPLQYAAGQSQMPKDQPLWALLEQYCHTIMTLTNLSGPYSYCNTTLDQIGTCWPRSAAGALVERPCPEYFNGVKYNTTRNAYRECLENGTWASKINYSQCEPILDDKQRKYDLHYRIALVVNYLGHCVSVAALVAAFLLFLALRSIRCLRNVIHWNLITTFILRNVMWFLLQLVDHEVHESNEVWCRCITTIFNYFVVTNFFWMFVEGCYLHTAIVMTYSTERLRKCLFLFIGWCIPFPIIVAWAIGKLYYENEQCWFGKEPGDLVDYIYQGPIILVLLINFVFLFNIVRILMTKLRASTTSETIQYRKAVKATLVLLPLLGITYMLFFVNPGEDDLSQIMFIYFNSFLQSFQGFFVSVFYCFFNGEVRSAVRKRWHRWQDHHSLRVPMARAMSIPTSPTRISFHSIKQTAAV
Experimental: as §1
Human CRHR1 and CRHR2 receptors were stably expressed in human embryonic kidney cells (HEK293) under control of a pcDNA expression vector. The HEK293 cell line was cultured in DMEM 1× (Gibco, 93-0152DK) supplemented with 10% FBS, 1 mM sodium pyruvate, 1×MEM NEAA, 1× GlutaMAX and 10 mM HEPES. The plasmids of human CRHR1-pQCXIP (T7364) and human CRHR2b-R2683puro (T16761) DNA were transfected into HEK293 cells using Lipo fectAMINE 3000 Transfection reagent (Invitrogen, L3000001). After 20 days under selection, the mRNA levels from different clones were measured to confirm the expression of human CRHR1 and CRHR2 genes. To determine the function of over-expressed CRHR cells, the intracellular cAMP levels in response to human UCN1 and UCN2 were measured and compared to the expression of CRHR1 and CRHR2 mRNA in each clone.
Human CRHR1 cells were cultured in DMEM 1× (Gibco, 93-0152DK) supplemented with 10% FBS, 1 mM sodium pyruvate, 1×MEM NEAA, 1×GlutaMAX, 10 mM HEPES, and 800 μg/ml G418. Human CRHR2 cells were cultured at the same media (DMEM 1×, 10% FBS, 1 mM sodium pyruvate, 1×MEM NEAA, 1×GlutaMAX, 10 mM HEPES) in the presence of 0.5 ug/mL puromycin. Cultured cells were grown to 90% confluency and harvested. […]
The amount of intracellular cAMP was quantitated using HTRF technology (Homogeneous Time Resolved Fluorescence; Cisbio) as per vendor instructions. […] The HTRF signal was immediately detected using an Envision plate reader (Perkin-Elmer) to calculate the ratio of fluorescence at 665 to 620 nm.
Raw fluorescence data for concentration curves of the peptides in Table 2 and Table 3 were converted to cAMP amount (pmol/well) using a cAMP standard curve generated for each experiment.

Compound | EC50 [1] [pM] | EC50 [2] [pM]
CC[C@H](C)[C@H](NC(C)=O)C(=O)N[C@H](C(=O)N[C@H](C(=O)N[C@@H](CO)C(=O)N[C@@](C)(CC(C)C)C(=O)N[C@@H](CC(=O)O)C(=O)N[C@@H](C(=O)N1CCC[C@H]1C(=O)N[C@H](C(=O)NCC(=O)N[C@@](C)(CC(C)C)C(=O)N[C@@H](CC(C)C)C(=O)N[C@@H](CCC(N)=O)C(=O)N[C@H](C(=O)N[C@@H](CCCCN)C(=O)N[C@@H](CC(C)C)C(=O)N[C@@H](CCC(=O)O)C(=O)N[C@@H](CCC(N)=O)C(=O)N[C@@H](CCC(=O)O)C(=O)N[C@@H](CCCNC(=N)N)C(=O)N[C@@H](C)C(=O)N[C@@H](CCC(=O)O)C(=O)N[C@@H](CCCCN)C(=O)N[C@@H](C)C(=O)N[C@@H](CCCNC(=N)N)C(=O)N[C@@H](CCC(N)=O)C(=O)N[C@@H](CCC(N)=O)C(=O)N[C@@H](C)C(=O)N[C@@H](CCCCNC(=O)[C@@H](N)CCCCNC(=O)CC[C@H](NC(=O)CC[C@H](NC(=O)CCCCCCCCCCCCCCCCCCC(=O)O)C(=O)O)C(=O)O)C(=O)N[C@@H](CCC(=O)O)C(=O)N[C@@H](CC(N)=O)C(=O)N[C@H](C(=O)N[C@@H](CCC(=O)O)C(=O)N[C@H](C(=O)N[C@@H](CC(C)C)C(=O)N[C@@H](C)C(=O)N[C@@H](CCC(N)=O)C(=O)N[C@H](C(N)=O)C(C)C)[C@@H](C)CC)[C@@H](C)O)[C@@H](C)CC)[C@@H](C)O)C(C)C)[C@@H](C)O)C(C)C [SEQ ID NO: 40, Ac-IVTS αMeL D (D-Val) PTG αMeL LQIKLEQERAEKARQQAK(ϵK-(γE)2-CO-(CH2)18-CO2H)ENTEILAQV-NH2] (Ac-IVTS[αMeL]D[dV]PTG[αMeL]LQIKLEQERAEKARQQAK([εLys-γGlu-γGlu-C20 diacid])ENTEILAQV-NH2) | > 1e+07 | 10.3 ± 1.9
Ac-GSPSIVTS[αMeL]DVPT[Aib][αMeL]LQKLLEQERAEKARQQAK([γGlu-AEEA-εLys-C18 diacid])EAAEILAQV-NH2 [SEQ ID NO: 12, Ac-GSPSIVTS αMeL DVPT Aib αMeL LQKLLEQERAEKARQQAK(γE-(2-[2-(2-Amino-ethoxy)-ethoxy]-acetyl)-K-CO-(CH2)16-CO2H)EAAEILAQV-NH2] | > 1e+07 | 23.8 ± 1.6
